Test results published in PubChem BioAssay AID588342 (National Center for Advancing Translational Sciences (NCATS), 2011).
Out of some 360,000 compounds screened, about 25,000 (6.9%) were called active. The shares of active, inactive and inconclusive entries below differ from those in the screen. Calls come from the whole dose curve; as a rule, active = well fitted inhibition curve with a large enough effect; inconclusive = small, poorly fitted or top-dose-only effect; inactive = flat fitted curve, though single readings scatter. Potencies of inconclusive entries are doubtful fits and often do not repeat.

Each molecule was assayed against Luciferin 4-monooxygenase (Photinus pyralis) (UniProt P08659) (assay: qHTS profiling assay for firefly luciferase inhibitor/activator using purifed enzyme and Km concentrations of substrates (counterscreen for miR-21 project)). Details: purified FLuc, luminescence inhibition; series mostly up to 57.5 µM.
Procedure, shortened: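 Purified P. pyralis luciferase, 10 nM final, with Km-level 10 uM D-luciferin and 10 uM ATP in 50 mM Tris acetate pH 7.5, 10 mM Mg acetate, 0.01% Tween-20, 0.05% BSA; 6-point qHTS titration about 60 µM downward; luminescence read.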
Note: nearly all actives have a fitted effect of over 55% in size.
Potency is the fitted concentration of half-maximal effect; tags give direction and shape of the fitted curve.

UniProt P08659, sequence (P08659 whole entry, looked up): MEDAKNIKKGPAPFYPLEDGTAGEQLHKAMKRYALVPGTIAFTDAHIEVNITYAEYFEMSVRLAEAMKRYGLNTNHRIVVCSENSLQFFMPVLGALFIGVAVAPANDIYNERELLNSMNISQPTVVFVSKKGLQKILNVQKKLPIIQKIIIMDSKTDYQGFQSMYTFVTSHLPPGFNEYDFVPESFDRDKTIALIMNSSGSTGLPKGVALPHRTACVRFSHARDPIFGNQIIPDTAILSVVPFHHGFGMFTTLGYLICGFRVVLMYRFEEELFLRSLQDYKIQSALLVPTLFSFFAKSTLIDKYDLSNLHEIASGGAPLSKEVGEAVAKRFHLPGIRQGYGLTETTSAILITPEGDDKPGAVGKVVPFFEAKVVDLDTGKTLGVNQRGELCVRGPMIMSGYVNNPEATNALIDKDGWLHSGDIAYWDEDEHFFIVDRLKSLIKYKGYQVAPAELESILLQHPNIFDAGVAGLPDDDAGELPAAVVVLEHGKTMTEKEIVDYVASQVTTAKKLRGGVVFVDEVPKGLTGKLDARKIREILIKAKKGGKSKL

| SMILES | Potency |
| --- | --- |
| COc1ccc(C2=NS(=O)(=O)N(C)C(C(=O)Nc3cc(OC)c(OC)c(OC)c3)=C2)cc1 | inconclusive: 37.9 µM [inhibitor, partial curve, poor fit] |
| COC(=O)CSc1cccc2c1C(=O)CC2c1ccccc1 (centres undefined) | inconclusive: 37.9 µM [inhibitor, single point] |
| COc1ccc(-c2nnc(SCC(=O)Oc3c(C)cccc3C)o2)cc1OC | inactive |
| O=C(COC(=O)CCCSc1nc2ccccc2[nH]1)Nc1ccc(Cl)cc1 | active: 19 µM |
| C(=Nc1ccc(Nc2ccccc2)cc1)c1ccc2ccccc2c1 | inconclusive: 30.1 µM [inhibitor, partial curve, poor fit] |
| O=C(NCCc1ccc(Cl)cc1)c1cccc(N2CCCC2=O)c1 | inconclusive: 26.9 µM [inhibitor, partial curve] |
| O=C(CN1C(=O)CCS(=O)(=O)c2ccccc21)Nc1cccc(Cl)c1 | inconclusive: 8.49 µM [inhibitor, partial curve, poor fit] |
| CCOC(=O)c1sc2ccccc2c1S(=O)(=O)Nc1cccc(C(F)(F)F)c1 | inconclusive: 10.7 µM [inhibitor, partial curve] |
| Oc1c(Cl)cc(Cl)cc1CNc1ccc(Br)cn1 | inconclusive: 21.3 µM [inhibitor, single point] |
| Cc1cccc(C(=O)NCCc2sc(-c3ccccc3)nc2C)c1 | inconclusive: 26.9 µM [inhibitor, partial curve, poor fit] |
| O=C(NCc1ccccc1)C1(c2cccc(F)c2)CCCC1 | inactive |
| CC(=O)Nc1ccc(NC(=O)c2cc(=O)c3cc(C)c(C)cc3o2)cc1 | active: 2.69 µM |
| COc1cc(CC(NC(C)=O)C(=O)NC2CCN(c3c4c(nc5ncnn35)CCC4)CC2)cc(OC)c1 (centres undefined) | inactive |
| Cc1c(Cl)cccc1NC(CC(=O)c1ccccc1)C(=O)O (centres undefined) | inconclusive: 10.7 µM [inhibitor, single point] |
| CCn1c(O)c(/C=N/n2cnnc2)sc1=S | inconclusive: 37.9 µM [inhibitor, single point] |
| O=C(/C=C/c1cccnc1)c1ccc(F)c(F)c1 | inconclusive: 26.9 µM [inhibitor, single point] |
| COc1ccc2c(c1)C(c1ccccc1)=NNC(c1ccco1)=N2 | inconclusive: 26.9 µM [inhibitor, partial curve] |
| CN(C)S(=O)(=O)c1ccc(C(=O)NCC(=O)Nc2ccc(F)c(F)c2)cc1 | inactive |
| NS(=O)(=O)c1ccc(-c2ccc(/C=C3\NC(=S)NC3=O)o2)cc1 | inconclusive: 26.9 µM [inhibitor, partial curve, poor fit] |
| Cc1nn(CC(=O)NCCc2ccccc2)c(=O)c2nn(-c3ccccc3)c(C)c12 | inactive |
| Cc1cccc(-c2noc(-c3ccc(NCc4ccccc4)c([N+](=O)[O-])c3)n2)c1 | inconclusive: 15.1 µM [inhibitor, partial curve, poor fit] |
| COc1cccc(/C=N/N2C(=O)NC3(CCCCC3)C2=O)c1O | active: 13.5 µM |
| S=C(Nc1cccc(Cl)c1)NC1CCCCC1 | inconclusive: 37.9 µM [inhibitor, single point] |

| SMILES | Potency |
| --- | --- |
| O=C(NCc1ccco1)c1ccc2ccccc2c1 | active: 13.5 µM |
| COc1ccccc1NC(=O)CSc1ccc(-c2ccco2)nn1 | inconclusive: 37.9 µM [inhibitor, single point] |
| CCc1nnc(NC(=O)CSc2nnc(-c3c[nH]c4ccccc34)n2CC)s1 | inconclusive: 37.9 µM [inhibitor, partial curve, poor fit] |
| Cc1[nH]c(C)c2c(=O)n(-c3ccccc3)ncc12 | inconclusive: 21.3 µM [inhibitor, single point] |
| O=C(NCCCN1CCN(Cc2ccccc2)CC1)C1CCN(c2nnc(-n3cccc3)s2)CC1 | inconclusive: 21.3 µM [inhibitor, single point] |
| O=[N+]([O-])c1cc([N+](=O)[O-])c2c(=Nc3ccccc3)n(-c3ccccc3)n(O)c2c1 | inconclusive: 37.9 µM [inhibitor, partial curve, poor fit] |
| CN(O)/C=N/C(=S)Nc1ccc(Cl)cc1Cl | inconclusive: 37.9 µM [inhibitor, single point] |
| CSCC(=O)N1CCC(n2nccc2NC(=O)c2ccc3c(c2)OCO3)CC1 | inconclusive: 26.9 µM [inhibitor, single point] |
| CC(C)Oc1ccc(C(CC(=O)NCc2ccco2)c2ccccc2)cc1 (centres undefined) | inactive |
| CCOC(=O)c1ccc(NCc2ccc(N(C)C)cc2)cc1 | inconclusive: 37.9 µM [inhibitor, partial curve, poor fit] |
| CCCCN(C)CCNC(=O)c1ccc(Cn2c(=S)[nH]c3ccc(Br)cc3c2=O)cc1 | inconclusive: 30.1 µM [inhibitor, partial curve, poor fit] |
| COc1cc(Br)c(/C=C/c2ccc3cccc(O)c3n2)cc1OC | inconclusive: 15.1 µM [inhibitor, partial curve, poor fit] |
| CCn1ccc2cc(S(=O)(=O)N3CCCN(C(=O)Nc4cccc(SC)c4)CC3)ccc21 | inactive |
| CCCNC(=O)C1CCN(C(=O)N2CC(C)Oc3ccccc32)CC1 (centres undefined) | inconclusive: 1.69 µM [inhibitor, full curve] |
| CCCCN(C)S(=O)(=O)c1ccc(NC2=NS(=O)(=O)c3ccccc32)cc1 | inactive |
| O=C(NCCN1CCOCC1)c1cc(-c2ccc(Cl)cc2Cl)on1 | active: 10.7 µM |
| Cc1ccc(CNC(=O)C2CCC(CNS(=O)(=O)c3ccc(C)cc3)CC2)cc1 (centres undefined) | inactive |
| c1ccc2c(SCc3cn4ccccc4n3)nncc2c1 | inconclusive: 30.1 µM [inhibitor, single point] |
| Cc1ccc(NC(=O)Cn2cc(C(=O)c3ccco3)c3ccccc32)cc1C | inconclusive: 8.49 µM [inhibitor, partial curve, poor fit] |
| CCOC(=O)c1sc(NC(=O)c2cc3n(n2)C(C(F)(F)F)CC(c2ccccc2)N3)c(C(=O)OCC)c1C (centres undefined) | inactive |
| CCC1CCCCN1Cc1c(O)ccc2c(=O)c(-c3ccccc3)coc12 (centres undefined) | inactive |
| CCC(C(=O)O)n1nc(-c2ccccc2)c2cc(Cl)ccc21 (centres undefined) | inconclusive: 16.9 µM [inhibitor, partial curve] |
| COc1ccc(CN2CCNC(=O)C2CC(=O)NCCc2nc(C)c3c(n2)CCC3)cc1C (centres undefined) | inactive |

| SMILES | Potency |
| --- | --- |
| Cc1[nH]c2ccccc2c1/C=C(\C#N)C(=O)NC1CC1 | active: 16.9 µM |
| Cc1ccc(CCNC(=O)c2cccc(N3CCCC3=O)c2)cc1 | inconclusive: 26.9 µM [inhibitor, partial curve, poor fit] |
| C=CCc1cccc2cc(C(=O)Nc3ccccc3C(=O)O)c(=O)oc12 | inconclusive: 26.9 µM [inhibitor, single point] |
| O=C(CNC(=O)c1cccs1)OCC(=O)c1ccc([N+](=O)[O-])cc1 | inactive |
| COc1ccccc1NC(=O)CSc1ccc(-c2ccccn2)nn1 | inactive |
| O=C(c1ccccc1-n1cccn1)N1CCc2c([nH]c3ccccc23)C1c1ccccn1 (centres undefined) | inconclusive: 23.9 µM [inhibitor, single point] |
| Cc1cccc(N2CCN(C(=O)NC3CCCCC3)CC2)c1C | inconclusive: 21.3 µM [inhibitor, single point] |
| CCOc1ccc(/C=C/C(=O)Oc2ccc(OC)cc2)cc1 | inconclusive: 13.5 µM [inhibitor, partial curve, poor fit] |
| CC(C)CC(=O)Nc1nnc(-c2ccco2)s1 | inconclusive: 19 µM [inhibitor, partial curve] |
| CCOc1ccccc1C(=O)N/N=C/c1c[nH]c2ccccc12 | inconclusive: 21.3 µM [inhibitor, partial curve, poor fit] |
| Cc1csc(NC(=O)CSc2nnnn2C)n1 | inconclusive: 21.3 µM [inhibitor, single point] |
| Clc1cccc(-c2nc3ccccn3c2Nc2ccc3c(c2)OCCO3)c1 | inconclusive: 15.1 µM [inhibitor, partial curve, poor fit] |
| COc1ccc(C2=NN(C(N)=S)C(c3ccco3)C2)cc1 (centres undefined) | inconclusive: 37.9 µM [inhibitor, single point] |
| Cc1ccc(Cl)cc1N(C)C(=O)c1cc2c(Cl)nc3ccccc3c2s1 | inconclusive: 37.9 µM [inhibitor, partial curve, poor fit] |
| CCCCCSc1nnc(-c2ccccc2NC(C)=O)c(=O)[nH]1 | inconclusive: 23.9 µM [inhibitor, partial curve] |
| CCOC(=O)C1C(c2cccc([N+](=O)[O-])c2)C2C(=O)NN=C2CC1(C)O (centres undefined) | inactive |
| COc1ccc(Cl)cc1NC(=S)NNC(=O)c1cccs1 | active: 26.9 µM |
| COc1ccc(N=NC2=C(O)CC(C)(C)CC2=O)c(OC)c1 | inconclusive: 26.9 µM [inhibitor, single point] |
| Cc1ccc(S(=O)(=O)Nc2ccc(NC(=O)/C=C/C(=O)O)cc2)cc1 | inactive |
| CCOc1ccc2nc(NC(=O)Cn3cnc4c3c(=O)n(C)c(=O)n4C)sc2c1 | inconclusive: 21.3 µM [inhibitor, single point] |
| O=C1CC(/C=C/c2ccc([N+](=O)[O-])cc2)=Nc2ccccc2N1 | inconclusive: 8.49 µM [inhibitor, partial curve] |
| Cc1ccc(NC2Nc3cc(C)nn3S2)c(C)c1 (centres undefined) | inconclusive: 26.9 µM [inhibitor, single point] |
| Cc1nc(CN(C)Cc2nc(Cc3ccccc3Cl)no2)cs1 | inactive |
